# Data: the supplement of paper PMC8728848
# Some of the results follow.
# Key:
# Experiment in all cases: glycan array binding signal (z-score within array); higher = stronger binding
# Details in all cases: glycan notation: IUPAC condensed, linker removed; mutation: N224Q
# [1] = biological target: Neu5Ac(a2-3)Gal(b1-3)GlcNAc(b1-6)GalNAc
# How it was run: (§1)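 From the Consortium for Functional Glycomics database, 3228 arrays were curated, keeping only those whose protein sequence was available. Binding is given as a within-array Z-score averaged across arrays sharing a protein sequence and across linkers. Negative Z-scores can be read as non-binding.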
# [2] = biological target: Neu5Ac(a2-3)Gal(b1-3)GlcNAc6S
# How it was run: as §1
# [3] = biological target: Neu5Ac(a2-3)Gal(b1-3)[Fuc(a1-4)]GlcNAc
# How it was run: as §1
# [4] = biological target: Neu5Ac(a2-3)Gal(b1-3)[Fuc(a1-4)]GlcNAc(b1-3)Gal(b1-3)[Fuc(a1-4)]GlcNAc
# How it was run: as §1
# [5] = biological target: Neu5Ac(a2-3)Gal(b1-3)[Fuc(a1-4)]GlcNAc(b1-3)Gal(b1-4)[Fuc(a1-3)]GlcNAc
# How it was run: as §1
# [6] = biological target: Neu5Ac(a2-3)Gal(b1-3)[GlcNAc(b1-6)]GalNAc
# How it was run: as §1
# [7] = biological target: Neu5Ac(a2-3)Gal(b1-3)[Neu5Ac(a2-6)]GalNAc
# How it was run: as §1
# [8] = biological target: Neu5Ac(a2-3)Gal(b1-3)[Neu5Ac(a2-6)]GlcNAc(b1-3)[Fuc(a1-3)[Gal(b1-4)]GlcNAc(b1-6)]Gal(b1-4)Glc
# How it was run: as §1
# [9] = biological target: Neu5Ac(a2-3)Gal(b1-3)]Neu5Ac(a2-3)Gal(b1-4)]GlcNAc
# How it was run: as §1
# Neu5Ac(a2-3)Gal(b1-4)Glc = biological target: Neu5Ac(a2-3)Gal(b1-4)Glc
# How it was run: as §1
# [10] = biological target: Neu5Ac(a2-3)Gal(b1-4)GlcNAc
# How it was run: as §1
# [11] = biological target: Neu5Ac(a2-3)Gal(b1-4)GlcNAc(b1-2)Man
# How it was run: as §1
# [12] = biological target: Neu5Ac(a2-3)Gal(b1-4)GlcNAc(b1-2)Man(a1-3)[GlcNAc(b1-4)][Neu5Ac(a2-3)Gal(b1-4)GlcNAc(b1-2)Man(a1-6)]Man(b1-4)GlcNAc(b1-4)GlcNAc
# How it was run: as §1
# [13] = biological target: Neu5Ac(a2-3)Gal(b1-4)GlcNAc(b1-2)Man(a1-3)[Neu5Ac(a2-3)Gal(b1-4)GlcNAc(b1-2)Man(a1-6)]Man(b1-4)GlcNAc(b1-4)GlcNAc
# How it was run: as §1
# [14] = biological target: Neu5Ac(a2-3)Gal(b1-4)GlcNAc(b1-2)Man(a1-3)[Neu5Ac(a2-3)Gal(b1-4)GlcNAc(b1-2)Man(a1-6)]Man(b1-4)GlcNAc(b1-4)[Fuc(a1-6)]GlcNAc
# How it was run: as §1
# [15] = biological target: Neu5Ac(a2-3)Gal(b1-4)GlcNAc(b1-2)Man(a1-3)[Neu5Ac(a2-6)Gal(b1-4)GlcNAc(b1-2)Man(a1-6)]Man(b1-4)GlcNAc(b1-4)GlcNAc
# How it was run: as §1
# [16] = biological target: Neu5Ac(a2-3)Gal(b1-4)GlcNAc(b1-2)[Neu5Ac(a2-3)Gal(b1-4)GlcNAc(b1-4)]Man(a1-3)[GlcNAc(b1-4)][Neu5Ac(a2-3)Gal(b1-4)GlcNAc(b1-2)[Neu5Ac(a2-3)Gal(b1-4)GlcNAc(b1-6)]Man(a1-6)]Man(b1-4)GlcNAc(b1-4)GlcNAc
# How it was run: as §1
# [17] = biological target: Neu5Ac(a2-3)Gal(b1-4)GlcNAc(b1-2)[Neu5Ac(a2-3)Gal(b1-4)GlcNAc(b1-4)]Man(a1-3)[GlcNAc(b1-4)][Neu5Ac(a2-3)Gal(b1-4)GlcNAc(b1-4)Man(a1-6)]Man(b1-4)GlcNAc(b1-4)GlcNAc
# How it was run: as §1
# [18] = biological target: Neu5Ac(a2-3)Gal(b1-4)GlcNAc(b1-2)[Neu5Ac(a2-3)Gal(b1-4)GlcNAc(b1-6)]Man(a1-6)[Neu5Ac(a2-3)Gal(b1-4)GlcNAc(b1-2)Man(a1-3)][GlcNAc(b1-4)]Man(b1-4)GlcNAc(b1-4)GlcNAc
# How it was run: as §1
# [19] = biological target: Neu5Ac(a2-3)Gal(b1-4)GlcNAc(b1-3)Gal
# How it was run: as §1
# [20] = biological target: Neu5Ac(a2-3)Gal(b1-4)GlcNAc(b1-3)Gal(b1-3)GlcNAc
# How it was run: as §1
# [21] = biological target: Neu5Ac(a2-3)Gal(b1-4)GlcNAc(b1-3)Gal(b1-4)GlcNAc
# How it was run: as §1
# [22] = biological target: Neu5Ac(a2-3)Gal(b1-4)GlcNAc(b1-3)Gal(b1-4)GlcNAc(b1-2)Man(a1-3)[Neu5Ac(a2-3)Gal(b1-4)GlcNAc(b1-3)Gal(b1-4)GlcNAc(b1-2)Man(a1-6)]Man(b1-4)GlcNAc(b1-4)GlcNAc
# How it was run: as §1
# [23] = biological target: Neu5Ac(a2-3)Gal(b1-4)GlcNAc(b1-3)Gal(b1-4)GlcNAc(b1-3)Gal(b1-4)GlcNAc
# How it was run: as §1
# [24] = biological target: Neu5Ac(a2-3)Gal(b1-4)GlcNAc(b1-3)Gal(b1-4)GlcNAc(b1-3)Gal(b1-4)GlcNAc(b1-2)Man(a1-3)[Neu5Ac(a2-3)Gal(b1-4)GlcNAc(b1-3)Gal(b1-4)GlcNAc(b1-3)Gal(b1-4)GlcNAc(b1-2)Man(a1-6)]GalNAc
# How it was run: as §1
# [25] = biological target: Neu5Ac(a2-3)Gal(b1-4)GlcNAc(b1-3)Gal(b1-4)GlcNAc(b1-3)GalNAc
# How it was run: as §1
# [26] = biological target: Neu5Ac(a2-3)Gal(b1-4)GlcNAc(b1-3)Gal(b1-4)GlcNAc(b1-3)[Neu5Ac(a2-3)Gal(b1-4)GlcNAc(b1-3)Gal(b1-4)GlcNAc(b1-6)]GalNAc
# How it was run: as §1
# [27] = biological target: Neu5Ac(a2-3)Gal(b1-4)GlcNAc(b1-3)Gal(b1-4)GlcNAc(b1-6)[Gal(b1-3)]GalNAc
# How it was run: as §1
# [28] = biological target: Neu5Ac(a2-3)Gal(b1-4)GlcNAc(b1-3)Gal(b1-4)[Fuc(a1-3)]GlcNAc
# How it was run: as §1
# [29] = biological target: Neu5Ac(a2-3)Gal(b1-4)GlcNAc(b1-3)GalNAc
# How it was run: as §1
binder,measurement,setting,value
AAL (Aleuria aurantia) (protein) MPTEFLYTSKIAAISWAATGGRQQRVYFQDLNGKIREAQRGGDNPWTGGSSQNVIGEAKLFSPLAAVTWKSAQGIQIRVYCVNKDNILSEFVYDGSKWITGQLGSVGVKVGSNSKLAALQWGGSESAPPNIRVYYQKSNGSGSSIHEYVWSGKWTAGASFGSTVPGTGIGATAIGPGRLRIYYQATDNKIREHCWDSNSWYVGGFSASASAGVSIAAISWGSTPQIRVYWQKGREELYEAAYGGSWNTPGQIKDASRPTPSLPDTFIAANSSGNIDISVFFQASGVSLQQWQWISGKGWSIGAVVPTGTPAGW,glycan array binding signal (z-score),[1],-0.315
same,glycan array binding signal (z-score),[2],-0.302
same,glycan array binding signal (z-score),[3],0.279
same,glycan array binding signal (z-score),[4],-0.15
same,glycan array binding signal (z-score),[5],1.15
same,glycan array binding signal (z-score),[6],-0.322
same,glycan array binding signal (z-score),[7],-0.315
same,glycan array binding signal (z-score),[8],-0.311
same,glycan array binding signal (z-score),[9],-0.317
same,glycan array binding signal (z-score),Neu5Ac(a2-3)Gal(b1-4)Glc,-0.317
same,glycan array binding signal (z-score),[10],-0.331
same,glycan array binding signal (z-score),[11],-0.26
same,glycan array binding signal (z-score),[12],-0.305
same,glycan array binding signal (z-score),[13],-0.321
same,glycan array binding signal (z-score),[14],1.36
same,glycan array binding signal (z-score),[15],-0.279
same,glycan array binding signal (z-score),[16],-0.327
same,glycan array binding signal (z-score),[17],-0.317
same,glycan array binding signal (z-score),[18],-0.302
same,glycan array binding signal (z-score),[19],-0.208
same,glycan array binding signal (z-score),[20],-0.317
same,glycan array binding signal (z-score),[21],-0.324
same,glycan array binding signal (z-score),[22],-0.186
same,glycan array binding signal (z-score),[23],-0.323
same,glycan array binding signal (z-score),[24],-0.105
same,glycan array binding signal (z-score),[25],-0.318
same,glycan array binding signal (z-score),[26],-0.219
same,glycan array binding signal (z-score),[27],-0.299
same,glycan array binding signal (z-score),[28],-0.32
same,glycan array binding signal (z-score),[29],-0.302
